# This is one part of the list. These are further read-outs of the screen, such as a control signal, another cell line or another target. No call is given for them. The list favours compounds with an active or inconclusive main result. Potencies come from curve fits of mixed quality, noted in brackets.
# What was measured:
# [1] = Cell-based coincidence reporter assay to measure PMP22 gene transcription in S16 Pmp22-F2sN cells - Confirmatory screen (AID 1508646); details: S16 Schwann cells Pmp22-F2sN, dual luciferase, 24 h
# How it was run: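 Coincidence reporter read as sequential FLuc then NLuc luminescence (Nano-Glo Dual-Luciferase, 10 min each). Engineered S16 Pmp22-F2sN Schwann cells, 500-1,000 per well in DMEM/10% FBS, were exposed to compounds for 24 h, 37C.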
# [2] = Validation of Assay for Modulators of Lamin A Splicing (AID 1459); details: Lamin A splicing dual RFP/GFP fluorescence reporter, ratio
# How it was run: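 S3 HeLa stably expressing lamin A-EGFP splicing minigene and DsRed2, 600 cells/well in Opti-MEM with 2% FBS, treated 48 h at 37C; laser-scanning cytometry gives GFP/RFP total intensity ratio; ancitabine positive control, 0.5% DMSO vehicle.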
# [3] = qHTS Validation Assay to Find Inhibitors of Chronic Active B-Cell Receptor Signaling (AID 485345); details: ABC-DLBCL cells, chronic BCR signaling reporter
# How it was run: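 Read-out: ratio of filter-corrected green (IkappaBalpha fusion) to red (native) luciferase signal in doxycycline-induced TMD8 cells after 4 h at 37C. Titration spanned 46 uM–3 nM; Data were normalised to basal cells and 10 uM MG-132 wells.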
# [4] = Nrf2 qHTS screen for inhibitors: Validation (AID 493153); details: A549 ARE-Fluc reporter, 18-24 h; AC50: CellTiter-Fluor fluorescence read, measured here: cytotoxicity CellTiter-Fluor AC50; viability change: measured here: cytotoxicity max response
# How it was run: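 A549 cells carrying ARE-firefly luciferase reporter, 5000 cells/well in 5% FBS OPTI-MEM, treated with compound over a concentration series for 18-24 h at 37 C. Luciferase luminescence gave Nrf2 activity; CellTiter-Fluor fluorescence gave viability.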
# [5] = qHTS Assay for Modulators of Human Peripheral Myelin Protein 22 (PMP22) Expression/Activity (AID 1967); details: Cell-based PMP22 reporter, dual-color luciferase ratio
# How it was run: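 Mouse MSC80 Schwann cells carrying Pmp22 promoter–green click beetle luciferase plus EF-alpha–red luciferase control, dosed 24 h at 37 °C. Dual-filter luminescence, overlap-corrected; %Activity from green/red ratio normalised to untreated cells, concentration-response curves fitted.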
# [6] = measured here: NLuc reporter channel
# [7] = measured here: FLuc reporter channel
# [8] = measured here: CBR control luciferase (viability counter)
# [9] = measured here: CBG/CBR ratio read-out
# [10] = measured here: green reporter channel AC50, mouse Pmp22 promoter in mouse Schwann cells
# [11] = measured here: red reporter channel AC50, EF-alpha promoter control reporter in MSC80 mouse Schwann cells
# Tags describe the fitted curve by direction and shape.
compound,measurement,setting,value
COc1ccc(NC(=O)Cn2c(=O)n(Cc3ccccc3Cl)c(=O)c3cc(OC)c(OC)cc32)cc1OC,AC50,[1]; [6],"9.68 µM [falling, single point]"
CCc1ccc(N2C(=O)CSC23C(=O)N(Cc2cccc(OC)c2)c2ccccc23)cc1 (stereo unspecified),AC50,[1]; [7],"34.3 µM [falling, single point]"
CCCCCCCCCCCCCCCCCCOC[C@H](COP(=O)([O-])OCC[N+](C)(C)C)OC,AC50,[2]; measured here: GFP channel,"35.5 µM [rising, single point]"
same,AC50,[3]; [8],"25.9 µM [rising, single point]"
same,AC50,[4],"5.8 µM [falling, full curve]"
same,viability change,[4],-82.5%
Cc1c(C(=O)OC2CCCCC2)[nH]c2c1C(=O)CC(c1ccccc1Cl)C2 (stereo unspecified),AC50,[1]; [7],"15.3 µM [falling, partial curve, poor fit]"
CCc1cccc(C)c1NC(=O)c1nc2ccccc2nc1N1CCCCC1,AC50,[1]; [6],"43.2 µM [falling, single point]"
CCN(CC)S(=O)(=O)c1ccc(C(=O)NCCSc2c(-c3ccc(OC)cc3)[nH]c3ccccc23)cc1,AC50,[1]; [7],"0.0039 µM [falling, single point]"
N#CC(=C(\N)Sc1ccccc1N)/C(C#N)=C(/N)Sc1ccccc1N,AC50,[2]; measured here: GFP channel,"2.82 µM [falling, partial curve, poor fit]"
same,AC50,[3]; [9],"18.4 µM [falling, partial curve]"
same,AC50,[3]; [8],"6.51 µM [falling, full curve]"
same,viability change,[4],-8.46%
CN1CCc2c(cc(O)c(O)c2Cl)C(c2cccc(Cl)c2)C1 (stereo unspecified),AC50,[2]; measured here: GFP channel,"35.5 µM [falling, single point]"
same,AC50,[5]; [10],"21.3 µM [rising, full curve]"
same,AC50,[5]; [11],"47.8 µM [falling, partial curve, poor fit]"
CC(C)OCCCNc1ncnc2sc3c(c12)CCCC3,AC50,[1]; [6],"9.68 µM [falling, full curve, poor fit]"
COc1ccc(Cl)cc1NC(=O)CSc1nc2ccccc2nc1N1CCCCC1,AC50,[1]; [7],"12.2 µM [falling, full curve, poor fit]"
CCN1C(=O)C=CC1=O,AC50,[2]; measured here: GFP channel,"11.2 µM [falling, partial curve]"
same,AC50,[5]; [10],"42.6 µM [falling, full curve]"
same,AC50,[5]; [11],"42.6 µM [falling, partial curve]"
Cc1nn2c(=O)cc(COC(=O)c3ccccc3NC(=O)c3cccs3)nc2s1,AC50,[1]; [7],"15.3 µM [rising, partial curve, poor fit]"
Cc1ccc(S(=O)(=O)Nc2cc3c(cc2N2CCOCC2)n(C)c(=O)n3C)c(C)c1,AC50,[1]; [7],"19.3 µM [falling, partial curve]"
COc1ccc(Nc2cc(C)nc3c(C)c(C)ccc23)cc1,AC50,[1]; [6],"30.6 µM [falling, single point]"
CCn1cc(C(=O)NCCc2ccc(OC)c(OC)c2)c(=O)c2cc(S(=O)(=O)N3CCCCCC3)ccc21,AC50,[1]; [7],"27.3 µM [falling, partial curve, poor fit]"
CCN1CCN(c2ccc(NS(=O)(=O)c3c(C)nc4sccn4c3=O)cc2Cl)CC1,AC50,[1]; [6],"6.11 µM [falling, full curve, poor fit]"
CC(Oc1ccccc1)C(=O)Nc1ccccc1C(=O)OCc1cc(=O)n2nc(C3CC3)sc2n1 (stereo unspecified),AC50,[1]; [6],"19.3 µM [falling, partial curve, poor fit]"
Cc1cccc(C(=O)Nc2cccc(C(=O)OCc3cc(=O)n4nc(C(C)C)sc4n3)c2)c1,AC50,[1]; [7],"0.769 µM [rising, full curve, poor fit]"
COc1ccc(C)cc1NC(=O)c1cc(S(=O)(=O)N2CCN(c3cccc(C)c3C)CC2)ccc1F,AC50,[1]; [6],"7.69 µM [falling, partial curve]"
Nc1c(S(=O)(=O)O)cc(Nc2ccc(Nc3nc(Cl)nc(Nc4ccc(S(=O)(=O)O)cc4)n3)c(S(=O)(=O)O)c2)c2c1C(=O)c1ccccc1C2=O,AC50,[2]; measured here: RFP channel,"25.1 µM [falling, partial curve]"
same,AC50,[5]; [10],"75.7 µM [falling, partial curve]"
same,AC50,[5]; [11],"30.1 µM [falling, partial curve]"
same,AC50,[3]; [9],"23.1 µM [falling, single point]"
same,AC50,[3]; [8],"18.4 µM [falling, single point]"
same,AC50,[4],"20.6 µM [falling, partial curve, poor fit]"
same,viability change,[4],-25.8%
Clc1ccc(-c2noc3ncnc(N4CCCCC4)c23)cc1,AC50,[1]; [7],"19.3 µM [falling, partial curve]"
Cc1ccc(F)cc1NC(=O)CSc1nc(-c2cccs2)cc(C(F)(F)F)n1,AC50,[1]; [6],"34.3 µM [falling, partial curve, poor fit]"
COc1ccc(OC)c(NC(=O)Cn2c(=O)c3cccn3c3ccccc32)c1,AC50,[1]; [7],"17.2 µM [falling, partial curve, poor fit]"
CNCCNS(=O)(=O)c1cccc2cnccc12,AC50,[2]; measured here: RFP channel,"20 µM [falling, partial curve]"
same,AC50,[5]; [10],"30.1 µM [rising, partial curve, poor fit]"
same,AC50,[3]; [8],"18.4 µM [falling, partial curve, poor fit]"
same,viability change,[4],-6.25%
CCC1=Nc2cc(C(=O)NCc3ccccc3Cl)ccc2Sc2ccc(C)cc21,AC50,[1]; [6],"13.7 µM [falling, full curve]"
COc1ccc(NC(=O)CCCn2c(=O)c3cccn3c3cccnc32)cc1Cl,AC50,[1]; [7],"9.68 µM [falling, partial curve, poor fit]"
N#CC1=C2SCN(C3CCCCC3)CN2C(=O)CC1c1c(F)cccc1Cl (stereo unspecified),AC50,[1]; [6],"43.2 µM [falling, single point]"
